Here are results for three molecules from article PMC11876601 (Molecular Systems Biology, 2025).

As a reminder, the EC50 is the midpoint of the concentration-response curve.

Read-outs that look alike come from different tables or passages of the source.

What all share (experiment): cells
Experiment [1] deals with PaTu-8988-T. Also noted: ATPlite luminescence viability of PDAC cell lines, 11-dose single-agent curves, 4-parameter fit. Particulars: Homo sapiens, PaTu 8988t, 72 h, read-out: EC50 [nM]. The protocol:
(§1) Afterward, small amounts were transferred to 384-well intermediate plates (Greiner Bio-One GmbH, Germany). […] For drug combination screening, 1000 to 5000 cells were seeded into 384-well plates (CulturPlate™, Perkin Elmer, MA, USA) using a Multidrop™ Combi Reagent Dispenser (Thermo Scientific, MA, USA) in 50 µl medium per well 24 h prior to drug treatment (seeding densities see Appendix Table S1). […] The final DMSO concentration in each well was 0.2%. […] Eight wells per plate without library drug served as negative controls, and sixteen wells per plate containing 5 µM Staurosporine served as positive controls. […] Next, we analyzed the drug sensitivity of immortalized duct cell line HPDE to detect effects unrelated to pancreatic cancer.

Experiment [2] deals with PSN-1. Also noted: ATPlite luminescence viability of PDAC cell lines, 11-dose single-agent curves, 4-parameter fit. The following applies: Homo sapiens, PSN1, 72 h, read-out: EC50 [nM]. The protocol:
as §1

Experiment [3] deals with Dan-G. Also noted: ATPlite luminescence viability of PDAC cell lines, 11-dose single-agent curves, 4-parameter fit. The following applies: 72 h, read-out: EC50 [nM]. The procedure:
as §1

In experiment [4] the test system is Capan-1. Also noted: ATPlite luminescence viability of PDAC cell lines, 11-dose single-agent curves, 4-parameter fit. Particulars: Homo sapiens, CAPAN-1, 72 h, read-out: EC50 [nM]. The protocol:
as §1

Experiment [5] concerns HuP-T4. Also noted: ATPlite luminescence viability of PDAC cell lines, 11-dose single-agent curves, 4-parameter fit. Particulars: Homo sapiens, HuP-T4, 72 h, read-out: EC50 [nM]. The procedure:
as §1

The test system of experiment [6] is MiaPaCa-2. Also noted: ATPlite luminescence viability of PDAC cell lines, 11-dose single-agent curves, 4-parameter fit. Particulars: Homo sapiens, MIA PaCa-2, 72 h, read-out: EC50 [nM]. The procedure:
as §1

In experiment [7] the test system is AsPC-1. Also noted: ATPlite luminescence viability of PDAC cell lines, 11-dose single-agent curves, 4-parameter fit. Particulars: Homo sapiens, ASPC1, 72 h, read-out: EC50 [nM]. The procedure:
as §1

Experiment [8] has as its system Suit2-07. Also noted: ATPlite luminescence viability of PDAC cell lines, 11-dose single-agent curves, 4-parameter fit. Particulars: 72 h, read-out: EC50 [nM]. The protocol:
as §1

The subject of experiment [9] is BxPC-3. Also noted: ATPlite luminescence viability of PDAC cell lines, 11-dose single-agent curves, 4-parameter fit. Particulars: Homo sapiens, BXPC-3, 72 h, read-out: EC50 [nM]. The procedure:
as §1

Experiment [10] deals with FAMPAC. Also noted: ATPlite luminescence viability of PDAC cell lines, 11-dose single-agent curves, 4-parameter fit. The following applies: 72 h, read-out: EC50 [nM]. The procedure: as §1
Experiment [11] deals with PaTu-8988-T. Also noted: Viability of PDAC cell lines, ATPlite luminescence, 11-dose single-agent curve fit. The following applies: Homo sapiens, PaTu 8988t, 72 h, read-out: EC50 [nM]. The protocol: as §1
For experiment [12], the system named is PSN-1. Also noted: Viability of PDAC cell lines, ATPlite luminescence, 11-dose single-agent curve fit. Particulars: Homo sapiens, PSN1, 72 h, read-out: EC50 [nM]. The protocol: as §1
Experiment [13] relates to Dan-G. Also noted: Viability of PDAC cell lines, ATPlite luminescence, 11-dose single-agent curve fit. The following applies: 72 h, read-out: EC50 [nM]. The protocol:
as §1

Experiment [14] deals with Capan-1. Also noted: Viability of PDAC cell lines, ATPlite luminescence, 11-dose single-agent curve fit. Particulars: Homo sapiens, CAPAN-1, 72 h, read-out: EC50 [nM]. The procedure:
as §1

The subject of experiment [15] is HuP-T4. Also noted: Viability of PDAC cell lines, ATPlite luminescence, 11-dose single-agent curve fit. Particulars: Homo sapiens, HuP-T4, 72 h, read-out: EC50 [nM]. The procedure: as §1
The test system of experiment [16] is MiaPaCa-2. Also noted: Viability of PDAC cell lines, ATPlite luminescence, 11-dose single-agent curve fit. The following applies: Homo sapiens, MIA PaCa-2, 72 h, read-out: EC50 [nM]. The procedure:
as §1

Experiment [17] has as its system AsPC-1. Also noted: Viability of PDAC cell lines, ATPlite luminescence, 11-dose single-agent curve fit. Particulars: Homo sapiens, ASPC1, 72 h, read-out: EC50 [nM]. The procedure:
as §1

Experiment [18] has as its system Suit2-07. Also noted: Viability of PDAC cell lines, ATPlite luminescence, 11-dose single-agent curve fit. Particulars: 72 h, read-out: EC50 [nM]. The procedure:
as §1

Experiment [19] relates to HPDE. Also noted: Viability of PDAC cell lines, ATPlite luminescence, 11-dose single-agent curve fit. The following applies: HPDE, 72 h, read-out: EC50 [nM]. The protocol:
as §1

Experiment [20] has as its system PANC-1. Also noted: Viability of PDAC cell lines, ATPlite luminescence, 11-dose single-agent curve fit. Particulars: Homo sapiens, PANC-1, 72 h, read-out: EC50 [nM]. The protocol: as §1
Experiment [21] relates to BxPC-3. Also noted: Viability of PDAC cell lines, ATPlite luminescence, 11-dose single-agent curve fit. The following applies: Homo sapiens, BXPC-3, 72 h, read-out: EC50 [nM]. The procedure:
as §1

The subject of experiment [22] is Colo-357. Also noted: Viability of PDAC cell lines, ATPlite luminescence, 11-dose single-agent curve fit. Particulars: Homo sapiens, COLO357, 72 h, read-out: EC50 [nM]. The procedure: as §1
In experiment [23] the test system is FAMPAC. Also noted: Viability of PDAC cell lines, ATPlite luminescence, 11-dose single-agent curve fit. The following applies: 72 h, read-out: EC50 [nM]. The protocol: as §1
Experiment [24] has as its system Colo-357. Also noted: ATPlite luminescence viability of PDAC cell lines, 11-dose single-agent curves, 4-parameter fit. Particulars: Homo sapiens, COLO357, 72 h, read-out: EC50 [nM]. The protocol:
as §1

On to `CNC(=O)c1ccccc1Sc1ccc2c(/C=C/c3ccccn3)n[nH]c2c1` [Axitinib], for which the EC50 in [1] was above 10000 nM; in experiment [2], above 10000 nM; in experiment [3] it was 6780 nM; in experiment [4], 7560 nM; in experiment [5], above 10000 nM; in experiment [6] it was above 10000 nM. Besides, the EC50 in experiment [7], in [8], in experiment [9] and in [10] was above 10000 nM throughout.
On to `CCS(=O)(=O)N1CC(CC#N)(n2cc(-c3ncnc4[nH]ccc34)cn2)C1` [Baricitinib], for which the EC50 in experiment [11] worked out at 4800 nM; in [12], 5190 nM; in [13] it was 432 nM; in experiment [14] it was 32.2 nM; in [15] it was 3890 nM; in [16], 4100 nM. The concentration for a half-maximal effect (EC50) in [17] stood at 3940 nM; in experiment [18] it was 1390 nM; in experiment [19], 69 nM; in experiment [20], 33 nM; in [21], 145 nM; in experiment [22], 43.8 nM. Also, the EC50 in experiment [23] was above 10000 nM.
For `CO[C@@H]1[C@H](N(C)C(=O)c2ccccc2)C[C@H]2O[C@]1(C)n1c3ccccc3c3c4c(c5c6ccccc6n2c5c31)C(=O)NC4` [Midostaurin], the EC50 in experiment [2] was 230 nM; in experiment [3], 390 nM; in [4], 706 nM; in experiment [6], 338 nM; in experiment [7], 1020 nM; in [8] it was 491 nM. Besides, the EC50 in experiment [9] came to 249 nM; in experiment [24], 637 nM; in [10] it was 345 nM; in [20], 338 nM.
